# Test results reported in paper PMC4336329 (PLoS ONE, 2015).
# Screen size: about 310,000 compounds; about 2,200 (0.71%) showed an effect of 50% or more. The effect is printed as a negative number. Some of the results follow.
# Target: human ether-à-go-go-related gene (hERG) potassium channel (human, UniProt Q12809)
# Experiment: primary screen, population patch clamp on CHO cells stably expressing hERG
# human ether-à-go-go-related gene (hERG) potassium channel, sequence (Q12809 whole entry, looked up): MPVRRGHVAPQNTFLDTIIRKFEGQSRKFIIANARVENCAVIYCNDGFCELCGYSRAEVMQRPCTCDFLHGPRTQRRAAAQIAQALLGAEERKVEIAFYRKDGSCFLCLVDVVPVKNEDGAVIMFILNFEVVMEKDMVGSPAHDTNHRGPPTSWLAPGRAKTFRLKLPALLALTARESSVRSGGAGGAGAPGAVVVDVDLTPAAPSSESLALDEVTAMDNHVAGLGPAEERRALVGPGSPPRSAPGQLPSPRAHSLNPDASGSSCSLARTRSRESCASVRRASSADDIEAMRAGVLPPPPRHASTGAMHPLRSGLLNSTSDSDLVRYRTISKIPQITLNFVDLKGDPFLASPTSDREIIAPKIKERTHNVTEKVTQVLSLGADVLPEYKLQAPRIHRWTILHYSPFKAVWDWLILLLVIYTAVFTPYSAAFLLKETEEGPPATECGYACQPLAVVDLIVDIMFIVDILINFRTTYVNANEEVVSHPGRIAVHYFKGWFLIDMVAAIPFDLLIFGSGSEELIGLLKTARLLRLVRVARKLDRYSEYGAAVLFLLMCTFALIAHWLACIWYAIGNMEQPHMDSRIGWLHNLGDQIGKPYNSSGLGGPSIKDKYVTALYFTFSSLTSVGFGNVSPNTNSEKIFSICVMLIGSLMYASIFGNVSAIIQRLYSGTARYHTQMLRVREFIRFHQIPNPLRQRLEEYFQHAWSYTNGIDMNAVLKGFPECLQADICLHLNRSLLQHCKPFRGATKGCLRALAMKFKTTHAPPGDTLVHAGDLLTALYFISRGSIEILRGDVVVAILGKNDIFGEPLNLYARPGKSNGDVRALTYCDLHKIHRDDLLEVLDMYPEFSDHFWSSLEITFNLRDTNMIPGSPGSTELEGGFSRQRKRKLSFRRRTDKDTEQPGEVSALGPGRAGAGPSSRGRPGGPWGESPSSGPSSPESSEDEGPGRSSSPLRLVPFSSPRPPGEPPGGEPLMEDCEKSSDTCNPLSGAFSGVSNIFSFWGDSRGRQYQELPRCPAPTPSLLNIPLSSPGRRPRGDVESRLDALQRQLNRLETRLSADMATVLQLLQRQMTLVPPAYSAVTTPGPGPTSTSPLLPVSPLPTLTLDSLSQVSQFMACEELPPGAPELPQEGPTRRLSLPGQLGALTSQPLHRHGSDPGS
row,Structure (SMILES),"hERG current change (%, negative = inhibition) at 1uM"
1,COc1ccccc1CCNC1CCCCCC1,13.2%
2,CN(C)/C=C/C(=O)c1ccc(S(=O)(=O)c2ccccc2)cc1,9.95%
3,O=C(NCc1ccccc1)c1ccccc1CO,8.01%
4,Cc1ccc(CN2CC(C(=O)NCC(=O)Nc3c(C)cccc3C)CC2=O)cc1 (stereo not drawn),7.27%
5,OCC[C@@H]1C[C@H](O)[C@@H](O)[C@@]2(Cc3ccccc3O2)O1,17.5%
6,Cc1cc([N+](=O)[O-])nn1CC(=O)NCc1nc2ccccc2[nH]1,5.47%
7,COc1ccc(N(C(=O)c2snc(C(N)=O)c2N)C(C(=O)NCC2CCCO2)c2ccc3ncccc3c2)cc1OC (stereo not drawn),12.5%
8,CC1CCCCC1NC(=S)NC(=O)c1sc2ccccc2c1Cl (stereo not drawn),6.28%
9,COc1ccccc1N1CCN(CC(=O)Nc2cccc(F)c2)CC1,-2.25%
10,O=C(NCc1ccccc1Cl)c1cc(=O)[nH]c2ccccc12,10.3%
11,O=C(Nc1cccc(Cl)c1)c1ccc(=O)[nH]n1,7.41%
12,CC1CN(c2ccc(NC(=S)NNCCC#N)cc2)CC(C)O1 (stereo not drawn),12.2%
13,Cc1ccc(C(=O)OCC(=O)NC2CCCC(C)C2C)cc1S(=O)(=O)N1CCCCC1 (stereo not drawn),11.4%
14,COc1ccccc1CNC(=O)Cc1ccc(Br)cc1,6.15%
15,Cn1c(SCc2ccccc2Cl)nc2c1c(=O)[nH]c(=O)n2C,13.6%
16,C=CCSc1nnc(NC(=O)C2CC(=O)N(Cc3ccc(C)cc3)C2)s1 (stereo not drawn),-2.81%
17,CSC1=NC(=O)/C(=C/c2ccc(SC)cc2)S1,11.3%
18,CCOC(=O)c1ccccc1NC(=O)c1ccccc1N(C)S(C)(=O)=O,-4.08%
19,O=C(CP(=O)(c1ccccc1)c1ccccc1)Nc1cccc(CP(=O)(c2ccccc2)c2ccccc2)c1,14.1%
20,COC(=O)c1ccc(COc2cccnc2[N+](=O)[O-])cc1,7.21%
21,CCOC(=O)/C(C#N)=C/Nc1ccsc1C(=O)OC,8.98%
22,S=C(Nc1ccc2c(c1)OCO2)NC1CCN(Cc2ccccc2)CC1,12.4%

row,Structure (SMILES),"hERG current change (%, negative = inhibition) at 1uM"
1,CCOC(=O)C1CN(S(=O)(=O)c2ccc(OC)cc2)c2cc(Cl)ccc2O1 (stereo not drawn),8.42%
2,CC1CCN(C(=O)c2ccc3c(=O)n4c(nc3c2)CCCCC4)CC1,9.52%
3,CCC1(c2ccccc2)NC(=O)N(Cc2ccc(C(=O)OC)cc2)C1=O (stereo not drawn),7.93%
4,C/C(N)=C(/C#N)C(=O)COC(=O)c1cc(-c2cccc(Br)c2)nc2ccccc12,-6.4%
5,CCCCn1c(O)c(/C=C2/C=CC=N2)c(=O)[nH]c1=O,29.2%
6,Cc1cc(C)c(C(=O)OCC(=O)NC(=O)c2ccccc2)c(C)c1,7.82%
7,COc1ccc(C2/C=C\CN(C(=O)C3CC3)[C@H](Cc3ccccc3)C(=O)N2Cc2ccc(F)cc2)cc1 (stereo partly drawn),10.7%
8,Cc1nn(C(C)C)c(C)c1CN1CCC(C(=O)Nc2cccc(-c3cccc(F)c3)c2)CC1,-1.94%
9,Cc1cc(C)c(C)c(OCC(=O)NCC2CCCO2)c1 (stereo not drawn),2.34%
10,CC1(C)SC2c3ccccc3C(=O)N2[C@@H]1C(=O)NCCCN1CCOCC1 (stereo partly drawn),8.39%
11,NS(=O)(=O)c1ccc(NC(=S)NCCc2ccccc2)cc1,16.3%
12,S=C(NCc1cccnc1)Nc1cc(Cl)cc(Cl)c1,10.2%
13,CCOC(=O)c1c(C)[nH]c(C(=O)COC(=O)CCS(=O)(=O)c2ccc(C)cc2)c1C,-3.29%
14,CCOc1ccc(NC(=O)CN(C)C(=O)c2ccc(N3CCCC3)c([N+](=O)[O-])c2)cc1OCC,-8.92%
15,COc1ccccc1-n1c(CNc2c(C)cccc2C)nnc1SCC(=O)N1CCOCC1,-4.47%
16,NC(=O)c1nn(-c2ccccc2)nc1NC(=O)Cn1nnc(-c2ccccc2)n1,22.5%
17,CCc1noc(C)c1C(=O)Nc1cccc(S(=O)(=O)N(C)c2ccccc2)c1,9%
18,O=C(CC1C(=O)NCCN1Cc1c(F)cccc1Cl)NC1CCCC1 (stereo not drawn),9.74%
19,CCOCCCNC(=O)c1c(-c2ccccc2)noc1C,9.76%
20,CCN1CCN(C2=C(NS(=O)(=O)c3ccccc3)C(=O)c3ccccc3C2=O)CC1,12.5%
21,CCOC(=O)Nc1ccc(S(=O)(=O)N2CCOCC2)cc1,6.76%
22,O=C1C2CCCN2C(c2ccc(Br)cc2)N1c1ccc(F)cc1 (stereo not drawn),3.21%

row,Structure (SMILES),"hERG current change (%, negative = inhibition) at 1uM"
1,CCc1nnc(NS(=O)(=O)c2ccc(NC(=O)c3ccccc3C)cc2)s1,13.8%
2,CCN(CC)C(=O)c1ccc(/C=C/c2c[nH]c3ccccc23)[n+](C)c1.[I-],14.6%
3,O=C1NC(=O)C(CCc2ccncc2)(CCc2ccncc2)C(=O)N1CCc1ccccc1,-23.1%
4,Cc1ccc(-c2cc(C(F)F)nc(NCc3cccs3)n2)cc1,1.19%
5,CCCC(=O)Nc1ccc(C)c(O)c1,10.7%
6,COc1ccc(CCNCC(=O)Nc2ccc(C)c(Br)c2)cc1OC.Cl,-0.5%
7,Nc1c(S(=O)(=O)c2cccs2)c2nc3ccccc3nc2n1/N=C/c1cccc(O)c1,2.55%
8,O=c1nc(Nc2ccccc2)oc2ccccc12,10.7%
9,Cc1ccc(C)c(C2=CSC3=NS(=O)(=O)CCN23)c1,22.5%
10,CC(=O)c1ccc(OCc2cc(C(=O)N(C)Cc3ncc(C)[nH]3)no2)cc1,4.39%
11,COc1ccccc1NC(=S)NC(=O)C(C)C,1.14%
12,CC1(C)NC(=O)N(CC(=O)N2CCN(S(=O)(=O)c3cc(Cl)ccc3Cl)CC2)C1=O,3.66%
13,CSc1sc(C(=O)N(C)C)cc1S(=O)(=O)C(C)C,9.35%
14,Oc1ccc(/C=N/NC(=S)N2CCOCC2)cc1,10.5%
15,Cc1ccc(-c2cc(C(=O)N/N=C/c3c(C)nn(C)c3C)c3ccccc3n2)c(C)c1,10.4%
16,Cl.Oc1ccccc1Nc1nc(NCc2ccco2)c2ccccc2n1,4.18%
17,CCOC(=O)c1c(NC(=O)C(C)OC(=O)C2=COCCO2)sc2c1CCCC2 (stereo not drawn),9.54%
18,N#C/C(C(=O)N1CCOCC1)=C1/SC(Cc2ccc(F)cc2)C(=O)N1c1ccccc1 (stereo not drawn),13.2%
19,COc1cc(CNc2ccc(N3CCN(C(C)=O)CC3)cc2)ccc1OCc1ccccc1,10.9%
20,Cc1ccc(S(=O)(=O)NC(CC(=O)N2CCOCC2)c2ccco2)cc1 (stereo not drawn),9.66%
21,CCCCNc1cnn(-c2ccccc2)c(=O)c1Cl,10%
22,CNc1ccccc1C(C)(C)c1cc(-c2cc(C)cc(C)c2)no1,17%

row,Structure (SMILES),"hERG current change (%, negative = inhibition) at 1uM"
1,Cc1oc(-c2ccc(C(F)(F)F)cc2)nc1CN(Cc1ccccn1)C[C@@H]1CCC(=O)N1,-14.5%
2,CCN(CC)c1ccc(C=Nc2ccccc2C)c(O)c1,7.05%
3,CCCCCC(=O)Nc1cccc2ccccc12,5.48%
4,COc1cc(/C=C/C(=O)OCC(=O)NCc2cccs2)ccc1OCC#N,10.6%
5,CCN(CC)CCOC(=O)c1ccc(NC(=O)/C=C/c2cccs2)cc1.Cl,-53.5%
6,O=C(N/N=C/c1ccc(O)c(O)c1)c1ccc(-n2cnnn2)cc1,0.209%
7,CC(CCc1ccccc1)NC(=O)c1ccc(NC(=O)c2ccc(Cl)cc2Cl)cc1 (stereo not drawn),5.84%
8,C/C(=N\NS(=O)(=O)c1ccc(Br)cc1)c1ccc2c(c1)OCO2,4.14%
9,COc1ccc(NC(=O)Cn2c(=O)n(CC(=O)NCc3ccco3)c(=O)c3ccccc32)cc1OC,11.1%
10,O=C(CSc1nnc(-c2ccco2)n1Cc1ccccc1)NC(=O)NCc1ccccc1,8.4%
11,Cc1ccc(C)c(N2CCN(c3nc4ccccc4c(=O)n3Cc3ccccc3)CC2)c1,10.3%
12,CC(=O)Nc1ccc(NC(=O)C(C)OC(=O)c2ccc3[nH]c(C)c(C)c3c2)cc1 (stereo not drawn),11.2%
13,CCOC(=O)C1Nc2ccc(C(=O)O)cc2C2C=CCC12 (stereo not drawn),15.4%
14,COCCC(=O)N(Cc1ccc2c(c1)OCO2)C(C(=O)NC1CCCCC1)c1ccncc1 (stereo not drawn),0.827%
15,CC(=O)NCCC(=O)Nc1cc(S(=O)(=O)N2CCOCC2)ccc1N1CCCC1,17.3%
16,CCCSC1=C(C#N)C2(CCCCC2)C(C#N)=C(N)N1,6.83%
17,CN(C)S(=O)(=O)N1CCc2ccc(NC(=O)c3ccc(C(F)(F)F)cc3)cc2C1,26.7%
18,Cc1ccc(-n2nnc3c(=O)n(Cc4cccc(C)c4)cnc32)cc1,14.2%
19,O=C(N/N=C\C=C\c1ccc([N+](=O)[O-])o1)c1cccs1,8.01%
20,N#Cc1c(N2CCCCC2)nc(N2CCCCC2)c2c1CCN(Cc1ccccc1)C2,7.31%
21,CCCNC(=O)N1[C@H]2CC[C@@H]1C(C(=O)OC)=C(c1c(C)noc1C)C2,11.8%
